In PubChem BioAssay AID686970 (National Center for Advancing Translational Sciences (NCATS), 2013):
The campaign covered roughly 360,000 compounds. About 6,000 (1.7%) were called active. The inconclusive results got no clear call from the source; some entries with a clear call stand among them for comparison. Calls follow the shape of the dose curve; as a rule, active = well fitted cell-killing curve with a large enough effect; inconclusive = small, poorly fitted or top-dose-only effect, or effect the other way; inactive = flat fitted curve, though single readings scatter. No potency is given beside an inconclusive call; the fits are too rough.

Assay: qHTS for induction of synthetic lethality in tumor cells producing 2HG: qHTS for the HT-1080-NT fibrosarcoma cell line;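 also: NT is the 2HG producing partner of a matched IDH1 knockdown line; nearly all actives have a fitted effect of over 55% in size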;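 as to activity, negative = less viability: 0% = DMSO-treated cells and -100% = media-only wells without cells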
Conditions: HT-1080-NT fibrosarcoma viability, CellTiter-Glo ATP luminescence, 48 h; activity, negative = less viability: at 46.1 µM (top of the series) unless noted
Outline: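 750 cells/well, RPMI + 5% FBS; 2 h settle, compound pin-transfer, 48 h at 37 degrees C. CellTiter-Glo 10 min RT, luminescence. Normalized to DMSO and media-only wells.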
Potency is read from the fitted curve at half-maximal effect; tags tell the direction and shape of the fitted curve.

Structure (SMILES) | activity, negative = less viability | Potency
COc1ccc(CNC(=O)[C@H](C)NC(=O)[C@@H]2Cc3ccccc3CN2)cc1 | inactive: 11.1% | –
O=C(Nc1cc(F)ccc1F)N1CCN(c2ccnc3cc(Cl)ccc23)CC1 | inactive: -8.19% | –
Cc1ccc(NC(=S)NCc2ccccc2)cc1[N+](=O)[O-] | inactive: -5.36% | –
Cc1ccccc1C(=O)N1CCN(c2ccc(NC(=O)c3ccc4c(c3)OCO4)cc2)CC1 | inconclusive: -11.2% [cytotoxic] | –
CSc1nc(N)nc2c1ncn2CC(=O)NCC(c1ccccc1)c1ccccc1 | inactive: -1.74% | –
CC(C)N(C(=O)Cn1c(SCC(=O)Nc2nccs2)nc2ccccc21)C(C)C | – | inconclusive [cytotoxic, single point]
COc1ccc(S(=O)(=O)N(C(=O)c2ccncc2)c2ccc3oc4c(c3c2)CCCC4)cc1 | inactive: -21.1% | –
C=CCNC(=O)CSCc1ccc(Br)cc1 | inactive: -0.0512% | –
Cc1nc(SC2CC(=O)N(c3ccccc3)C2=O)nc2c1CCCC2 (configuration not stated) | – | inconclusive [cytotoxic, single point]
CCOc1ccc(CC2S/C(=N/c3ccccn3)NC2=O)cc1 (configuration not stated) | – | inconclusive [cytotoxic, single point]
COc1ccc(C(=O)COC(=O)CCN2C(=O)C3C4C=CC(C5CC45)C3C2=O)cc1 (configuration not stated) | inactive: -6.51% | –
CCOC(=O)C(=CNNc1c(C)csc1C(=O)OC)C(=O)OCC | inactive: -1.08% | –
CCn1c(SCC(=O)NCc2ccc3c(c2)OCO3)nnc1-c1ccncc1 | inconclusive: 24.9% | –
Cc1ccc(NC(=O)c2sc3ncn(CC(=O)N4CCN(c5ccccn5)CC4)c(=O)c3c2C)cc1F | inactive: -15.1% | –
COCc1ccc(CN2CCc3c([nH]c4ccccc34)C2CC(C)C)o1 (configuration not stated) | – | inconclusive [cytotoxic, partial curve]
O=C1CSC(c2ccccc2)N1c1ccccc1F (configuration not stated) | inactive: 17.1% | –
COC(=O)[C@@H](NC(=O)c1ccccc1)[C@@H](C)O | – | inconclusive [rising, single point]
CC(=O)Nc1ccc(-c2ccnc3c2CC(C)(C(=O)NCc2ccc(F)c(F)c2)O3)cc1 (configuration not stated) | – | inconclusive [cytotoxic, partial curve]
O=C(N/N=C/c1cc(Cl)ccc1O)c1ccccc1Br | – | inconclusive [cytotoxic, full curve]
Cn1c(=O)c2c(nc(NCc3ccc4c(c3)OCO4)n2C)n(C)c1=O | inactive: 9.51% | –
CC[C@@H](C(=O)[C@@H](C)[C@@H](O)[C@H](C)CCc1ccc(C)c(O)c1C(=O)O)[C@H]1O[C@](CC)([C@H]2CC[C@](O)(CC)[C@H](C)O2)C[C@@H]1C | – | active: 1.64 µM
O=C(N/N=C/c1ccc2c(c1)OCO2)c1cccc(NC(=O)c2ccccc2Cl)c1 | – | active: 11.6 µM
COc1ccccc1CC(=O)NO | inactive: 5.75% | –
COc1cc(NC(=O)C(C)(C)C)c(C(=O)OCC(=O)Nc2cc(C)on2)cc1OC | inactive: 6.23% | –
c1cc(SC2CCCCC2)cc(-c2nc3cnccn3c2NC2CCCCC2)c1 | – | inconclusive [cytotoxic, single point]
COC(=O)c1ccc2nc(-c3ccc(F)cc3)c(Cc3ccc(OC)cc3C)n2c1 | – | inconclusive [cytotoxic, single point]

Structure (SMILES) | activity, negative = less viability | Potency
CCN(CC)CC(O)Cn1c(C)c(-c2ccccc2)c2cc([N+](=O)[O-])ccc21 (configuration not stated) | – | active: 20.6 µM
CN1/C(=C\C(=O)CSc2nnc(N)s2)C(C)(C)c2ccccc21 | inactive: 0.0437% | –
CCOc1cccc(C2C(C#N)=C(N)Oc3cc(C)[nH]c(=O)c32)c1OCC (configuration not stated) | inactive: 14.1% | –
C[C@@H]1CN([C@H](C)CO)C(=O)CCCn2cc(nn2)CO[C@H]1CN(C)S(=O)(=O)c1ccc(C#N)cc1 | inactive: -9.82% | –
COc1ccc(CC(N)c2csc(NC(=O)c3cc(C(C)(C)C)oc3C)n2)cc1 (configuration not stated) | – | active: 20.6 µM
COc1cccc(CNC(=O)C2CCN(S(=O)(=O)c3ccc(F)cc3)CC2)c1 | inactive: -2.8% | –
OC(c1ccc(Cl)c(F)c1)c1ncc(-c2ccc(F)cc2)[nH]1 (configuration not stated) | – | inconclusive [cytotoxic, single point]
COc1ccc(-n2nc3c(N4CCC(C(=O)NCCc5ccco5)CC4)nnc(C)c3c2C)cc1 | – | inconclusive [cytotoxic, single point]
CCOC(=O)C(=Cc1ccc(OCc2ccc([N+](=O)[O-])cc2)c(OC)c1)C(=O)OCC | – | active: 20.6 µM
CCCCC(=O)N=c1sc2c(OC)ccc(OC)c2n1C | inconclusive: 32.4% | –
CCOCCCN(CCC#N)C(=O)C1CCN(S(=O)(=O)c2ccc(-n3cnnn3)cc2)CC1 | inactive: -2.42% | –
COc1cccc(CNC(=O)CCS(=O)(=O)c2cc3c(cc2C)NC(=O)CO3)c1 | – | inconclusive [rising, single point]
CCOc1ccc(CN(C)Cc2cc(=O)oc3c(C)c(C)ccc23)cc1OC | – | inconclusive [cytotoxic, single point]
COc1ccccc1C(=O)N1CCN(c2cccc(Cl)c2)CC1 | – | active: 2.59 µM
COc1ccc(-c2sc3cc(OC)c(OC)cc3c2C#CCCO)cc1 | – | inconclusive [cytotoxic, single point]
S=C(NCCCc1ccccc1)Nc1ccc(Br)cc1 | – | inconclusive [cytotoxic, single point]
CCCS(=O)(=O)N1CCCC(C(=O)Nc2ccc3c(c2)CCC3)C1 (configuration not stated) | inactive: 2.02% | –
O=S(=O)(/C(=C/c1ccc(C(F)(F)F)cc1)c1nc2ccccc2[nH]1)c1ccccc1 | – | active: 2.59 µM
COc1ccc(Br)cc1CNC(=O)Nc1cccs1 | – | inconclusive [cytotoxic, single point]
CCOc1cc(C(=O)Nc2ccc3c(c2)OCO3)ccc1OC(F)F | inactive: -11.3% | –
O=C(CSC1=NS(=O)(=O)c2cc(F)ccc2N1)NCCc1ccccc1 | inactive: -8.45% | –
Cn1nc(-c2ccc(Cl)cc2)c2cc(C(=O)NCCCN3CCCC3)sc21 | – | inconclusive [cytotoxic, single point]
CCN(CC)CCOC(=O)c1ccc(NC(=O)c2ccc(Cl)c(S(=O)(=O)N3CCCCCC3)c2)cc1 | – | inconclusive [cytotoxic, single point]
O=C(C=Cc1ccccc1)CC(c1ccccc1)N1CCOCC1 (configuration not stated) | – | active: 4.11 µM
C[C@]1(O)CC(=O)C=C[C@H]1Nc1ccccc1 | – | active: 20.6 µM
CCOC(=O)c1sc(NC(=O)CSc2nc(C)cc(-c3ccccc3)n2)c(C#N)c1C | inactive: 18.5% | –

Structure (SMILES) | activity, negative = less viability | Potency
O=[N+]([O-])c1ccc(N/N=C/c2cccc(O)c2)cc1 | – | inconclusive [cytotoxic, partial curve]
CCCCc1ccc(S(=O)(=O)NC(=O)C2(C)CCN2C(=O)c2ccccc2)cc1 (configuration not stated) | inactive: 8.41% | –
CCn1c2ccccc2c2cc(NC(=O)CSc3nnc(-c4ccccc4OC)n3N)ccc21 | – | inconclusive [cytotoxic, single point]
Cc1cc(OCC(=O)NNC(=O)c2cnccn2)cc(C)c1Cl | – | inconclusive [cytotoxic, partial curve]
Cc1ccc(O)c(CNCCNCc2cc(C)ccc2O)c1 | – | inconclusive [cytotoxic, single point]
CCn1nc(C)cc1C(=O)Sc1cccc(Cl)c1 | – | active: 18.4 µM
COc1ccc(C(=O)NC2CCCc3ccccc32)c(OC)c1OC (configuration not stated) | – | inconclusive [cytotoxic, partial curve]
Cc1ccc(-c2csc(C(O)c3cccc(Cl)c3)n2)cc1C (configuration not stated) | – | inconclusive [cytotoxic, single point]
O=C(c1cc(=O)[nH]c2ccccc12)N(Cc1nnc(-c2ccccc2Cl)o1)C1CC1 | inactive: 6.08% | –
OCCCNc1c2ccccc2nc2ccccc12 | – | active: 23.1 µM
COc1ccc(-c2nc3c(Cl)cc(C(F)(F)F)cn3c2Cc2cccc(Cl)c2)cc1OC | – | inconclusive [cytotoxic, single point]
COc1ccc(C2C3=C(CC(C)(C)CC3=O)Oc3ncn(Cc4ccco4)c(=N)c32)cc1 (configuration not stated) | inactive: -5.53% [at 9.24 µM] | –
O=C(NC(c1ccccc1)c1cnccn1)C1CCN(CCOc2ccc(Cl)cc2Cl)CC1 (configuration not stated) | – | active: 16.4 µM
CCn1c2ccccc2c2cc(NC(=O)CC(C)=O)ccc21 | inactive: 6.1% | –
O=C(c1ccc2c3n(nc2c1)-c1ccc(Cl)cc1CO3)N1CCOCC1 | – | inconclusive [cytotoxic, partial curve]
O=C(NC1=CC(=O)c2ccccc2C1=O)c1ccccc1 | – | active: 7.31 µM
CNc1nc(SCc2ccccc2Cl)nc2c1CCCC2 | – | inconclusive [cytotoxic, partial curve]
O=C(NCC12CC3CC(CC(C3)C1)C2)c1cc2n(n1)C(C(F)(F)F)CC(c1ccco1)N2 (configuration not stated) | – | inconclusive [cytotoxic, single point]
Cc1ccc(C(=O)NC23CC4CC(CC(C4)C2)C3)c(Cl)c1 | inconclusive: 30.5% | –
COc1ccccc1C(CC(=O)c1ccccc1)C(=O)c1ccccc1 (configuration not stated) | – | inconclusive [cytotoxic, single point]
COc1cc(C2c3cc4c(cc3OC(NNC(N)=S)C2C)OCO4)cc(OC)c1OC (configuration not stated) | – | active: 1.84 µM
O=C(Cn1c(NCCO)nc2ccccc21)c1ccc(Cl)cc1Cl | – | active: 20.6 µM
CC1CN(C(=O)COC(=O)c2cc(=O)c3ccccc3o2)CC(C)O1 (configuration not stated) | inactive: -1.98% | –
O=C(OCc1ccccc1)N1CCC2CC1c1ccc(-c3ccc4c(c3)OCO4)cc12 (configuration not stated) | inconclusive: 3.02% | –
CC(CC(=O)Nc1ccc2c(c1)c(=O)n(C)n2-c1ccccc1F)c1ccccc1 (configuration not stated) | – | active: 7.31 µM
